# From the supplement of paper PMC8728848
# The other results are listed elsewhere or left out.
# Tests used:
# Experiment in all cases: glycan array binding signal (z-score within array); higher = stronger binding
# Conditions in all cases: glycan notation: IUPAC condensed, linker removed
# [1] = molecular target: Neu5Ac(a2-3)Gal(b1-4)GlcNAc(b1-3)[Neu5Ac(a2-3)Gal(b1-4)GlcNAc(b1-6)]GalNAc
# Summary of the method: (§1)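 Columns mapping to the same glycan were averaged after glycan names were converted to IUPAC-condensed notation. The data come from 3228 arrays in the Consortium for Functional Glycomics database, limited to those with an available protein sequence. Binding is reported as a within-array Z-score averaged across arrays of one protein sequence and across linkers.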
# [2] = molecular target: Neu5Ac(a2-3)Gal(b1-4)GlcNAc(b1-6)GalNAc
# Summary of the method: as §1
# [3] = molecular target: Neu5Ac(a2-3)Gal(b1-4)GlcNAc(b1-6)[Gal(b1-3)]GalNAc
# Summary of the method: as §1
# [4] = molecular target: Neu5Ac(a2-3)Gal(b1-4)GlcNAc(b1-6)[Neu5Ac(a2-3)Gal(b1-3)]GalNAc
# Summary of the method: as §1
# [5] = molecular target: Neu5Ac(a2-3)Gal(b1-4)GlcNAc6S
# Summary of the method: as §1
# [6] = molecular target: Neu5Ac(a2-3)Gal(b1-4)[Fuc(a1-3)]GlcNAc
# Summary of the method: as §1
# [7] = molecular target: Neu5Ac(a2-3)Gal(b1-4)[Fuc(a1-3)]GlcNAc(b1-2)Man
# Summary of the method: as §1
# [8] = molecular target: Neu5Ac(a2-3)Gal(b1-4)[Fuc(a1-3)]GlcNAc(b1-3)Gal
# Summary of the method: as §1
# [9] = molecular target: Neu5Ac(a2-3)Gal(b1-4)[Fuc(a1-3)]GlcNAc(b1-3)Gal(b1-4)GlcNAc
# Summary of the method: as §1
# [10] = molecular target: Neu5Ac(a2-3)Gal(b1-4)[Fuc(a1-3)]GlcNAc(b1-3)Gal(b1-4)[Fuc(a1-3)]GlcNAc(b1-3)Gal(b1-4)[Fuc(a1-3)]GlcNAc
# Summary of the method: as §1
# [11] = molecular target: Neu5Ac(a2-3)Gal(b1-4)[Fuc(a1-3)]GlcNAc(b1-3)GalNAc
# Summary of the method: as §1
# [12] = molecular target: Neu5Ac(a2-3)Gal(b1-4)[Fuc(a1-3)]GlcNAc(b1-6)[Gal(b1-3)]GalNAc
# Summary of the method: as §1
# [13] = molecular target: Neu5Ac(a2-3)Gal(b1-4)[Fuc(a1-3)]GlcNAc(b1-6)[Neu5Ac(a2-3)Gal(b1-3)]GalNAc
# Summary of the method: as §1
# [14] = molecular target: Neu5Ac(a2-3)Gal(b1-4)[Fuc(a1-3)]GlcNAc6S
# Summary of the method: as §1
# [15] = molecular target: Neu5Ac(a2-3)Gal6S(b1-4)GlcNAc
# Summary of the method: as §1
# [16] = molecular target: Neu5Ac(a2-3)Gal6S(b1-4)[Fuc(a1-3)]GlcNAc
# Summary of the method: as §1
# [17] = molecular target: Neu5Ac(a2-3)GalNAc
# Summary of the method: as §1
# [18] = molecular target: Neu5Ac(a2-3)GalNAc(b1-4)GlcNAc
# Summary of the method: as §1
# [19] = molecular target: Neu5Ac(a2-3)[GalNAc(b1-4)]Gal(b1-4)Glc
# Summary of the method: as §1
# [20] = molecular target: Neu5Ac(a2-3)[GalNAc(b1-4)]Gal(b1-4)GlcNAc
# Summary of the method: as §1
# [21] = molecular target: Neu5Ac(a2-3)[GalNAc(b1-4)]Gal(b1-4)GlcNAc(b1-3)GalNAc
# Summary of the method: as §1
# [22] = molecular target: Neu5Ac(a2-3)[Neu5Ac(a2-6)]GalNAc
# Summary of the method: as §1
# [23] = molecular target: Neu5Ac(a2-6)Gal
# Summary of the method: as §1
# [24] = molecular target: Neu5Ac(a2-6)Gal(b1-3)GlcNAc(b1-3)[Gal(b1-4)GlcNAc(b1-6)]Gal(b1-4)Glc
# Summary of the method: as §1
# [25] = molecular target: Neu5Ac(a2-6)Gal(b1-4)Glc
# Summary of the method: as §1
# [26] = molecular target: Neu5Ac(a2-6)Gal(b1-4)GlcNAc
# Summary of the method: as §1
# [27] = molecular target: Neu5Ac(a2-6)Gal(b1-4)GlcNAc(b1-2)Man
# Summary of the method: as §1
# [28] = molecular target: Neu5Ac(a2-6)Gal(b1-4)GlcNAc(b1-2)Man(a1-3)Man(b1-4)GlcNAc(b1-4)GlcNAc
# Summary of the method: as §1
# [29] = molecular target: Neu5Ac(a2-6)Gal(b1-4)GlcNAc(b1-2)Man(a1-3)[Gal(b1-4)GlcNAc(b1-2)Man(a1-6)]Man(b1-4)GlcNAc(b1-4)GlcNAc
# Summary of the method: as §1
# [30] = molecular target: Neu5Ac(a2-6)Gal(b1-4)GlcNAc(b1-2)Man(a1-3)[GlcNAc(b1-4)][Neu5Ac(a2-6)Gal(b1-4)GlcNAc(b1-2)Man(a1-6)]Man(b1-4)GlcNAc(b1-4)GlcNAc
# Summary of the method: as §1
# [31] = molecular target: Neu5Ac(a2-6)Gal(b1-4)GlcNAc(b1-2)Man(a1-3)[Man(a1-6)]Man(b1-4)GlcNAc(b1-4)GlcNAc
# Summary of the method: as §1
# [32] = molecular target: Neu5Ac(a2-6)Gal(b1-4)GlcNAc(b1-2)Man(a1-3)[Neu5Ac(a2-3)Gal(b1-4)GlcNAc(b1-2)Man(a1-6)]Man(b1-4)GlcNAc(b1-4)GlcNAc
# Summary of the method: as §1
# [33] = molecular target: Neu5Ac(a2-6)Gal(b1-4)GlcNAc(b1-2)Man(a1-3)[Neu5Ac(a2-6)Gal(b1-4)GlcNAc(b1-2)Man(a1-6)]Man(b1-4)GlcNAc(b1-4)GlcNAc
# Summary of the method: as §1
# [34] = molecular target: Neu5Ac(a2-6)Gal(b1-4)GlcNAc(b1-2)Man(a1-3)[Neu5Ac(a2-6)Gal(b1-4)GlcNAc(b1-2)Man(a1-6)]Man(b1-4)GlcNAc(b1-4)[Fuc(a1-6)]GlcNAc
# Summary of the method: as §1
# [35] = molecular target: Neu5Ac(a2-6)Gal(b1-4)GlcNAc(b1-2)Man(a1-6)Man(b1-4)GlcNAc(b1-4)GlcNAc
# Summary of the method: as §1
# [36] = molecular target: Neu5Ac(a2-6)Gal(b1-4)GlcNAc(b1-2)Man(a1-6)[Gal(b1-4)GlcNAc(b1-2)Man(a1-3)]Man(b1-4)GlcNAc(b1-4)GlcNAc
# Summary of the method: as §1
# [37] = molecular target: Neu5Ac(a2-6)Gal(b1-4)GlcNAc(b1-2)Man(a1-6)[GlcNAc(b1-2)Man(a1-3)]Man(b1-4)GlcNAc(b1-4)GlcNAc
# Summary of the method: as §1
# [38] = molecular target: Neu5Ac(a2-6)Gal(b1-4)GlcNAc(b1-2)Man(a1-6)[Man(a1-3)]Man(b1-4)GlcNAc(b1-4)GlcNAc
# Summary of the method: as §1
# [39] = molecular target: Neu5Ac(a2-6)Gal(b1-4)GlcNAc(b1-2)[Neu5Ac(a2-6)Gal(b1-4)GlcNAc(b1-4)]Man(a1-3)[GlcNAc(b1-4)][Neu5Ac(a2-6)Gal(b1-4)GlcNAc(b1-2)[Neu5Ac(a2-6)Gal(b1-4)GlcNAc(b1-6)]Man(a1-6)]Man(b1-4)GlcNAc(b1-4)GlcNAc
# Summary of the method: as §1
# [40] = molecular target: Neu5Ac(a2-6)Gal(b1-4)GlcNAc(b1-2)[Neu5Ac(a2-6)Gal(b1-4)GlcNAc(b1-4)]Man(a1-3)[GlcNAc(b1-4)][Neu5Ac(a2-6)Gal(b1-4)GlcNAc(b1-4)Man(a1-6)]Man(b1-4)GlcNAc(b1-4)GlcNAc
# Summary of the method: as §1
# [41] = molecular target: Neu5Ac(a2-6)Gal(b1-4)GlcNAc(b1-2)[Neu5Ac(a2-6)Gal(b1-4)GlcNAc(b1-6)]Man(a1-6)[Neu5Ac(a2-6)Gal(b1-4)GlcNAc(b1-2)Man(a1-3)][GlcNAc(b1-4)]Man(b1-4)GlcNAc(b1-4)GlcNAc
# Summary of the method: as §1
# [42] = molecular target: Neu5Ac(a2-6)Gal(b1-4)GlcNAc(b1-3)Gal(b1-3)GlcNAc
# Summary of the method: as §1
# [43] = molecular target: Neu5Ac(a2-6)Gal(b1-4)GlcNAc(b1-3)Gal(b1-4)GlcNAc
# Summary of the method: as §1
# [44] = molecular target: Neu5Ac(a2-6)Gal(b1-4)GlcNAc(b1-3)Gal(b1-4)GlcNAc(b1-2)Man(a1-3)[Neu5Ac(a2-6)Gal(b1-4)GlcNAc(b1-3)Gal(b1-4)GlcNAc(b1-2)Man(a1-6)]GalNAc
# Summary of the method: as §1
# [45] = molecular target: Neu5Ac(a2-6)Gal(b1-4)GlcNAc(b1-3)Gal(b1-4)GlcNAc(b1-3)Gal(b1-4)GlcNAc
# Summary of the method: as §1
# [46] = molecular target: Neu5Ac(a2-6)Gal(b1-4)GlcNAc(b1-3)Gal(b1-4)GlcNAc(b1-3)Gal(b1-4)GlcNAc(b1-2)Man(a1-3)[Neu5Ac(a2-6)Gal(b1-4)GlcNAc(b1-3)Gal(b1-4)GlcNAc(b1-3)Gal(b1-4)GlcNAc(b1-2)Man(a1-6)]GalNAc
# Summary of the method: as §1
binder,measurement,setting,value
MpAFP NterminalRI GFP (Marinomonas primoryensis) (protein) MSDNQFPFATLGNAIGFITKLDGSVTVQSIDGQERVLKLGDPIFFGETVLTGGSGSVTIAFVDGTDVVIGGDSIVEMTDEIYNTGDNEDLVADSSSEIDALQNAILAGDDPTLIQDAPAAGNTLADQQRVDVSIERNDNSAQAGFGVDTQSSLPTYGYDTDNGNGGQATEREYSAPSLSRTLNQSPLLEHHHHHH,glycan array binding signal (z-score),[1],-0.364
same,glycan array binding signal (z-score),[2],-0.152
same,glycan array binding signal (z-score),[3],3.31
same,glycan array binding signal (z-score),[4],-0.544
same,glycan array binding signal (z-score),[5],-0.5
same,glycan array binding signal (z-score),[6],-0.644
same,glycan array binding signal (z-score),[7],-0.506
same,glycan array binding signal (z-score),[8],-0.343
same,glycan array binding signal (z-score),[9],0.865
same,glycan array binding signal (z-score),[10],-0.065
same,glycan array binding signal (z-score),[11],1.37
same,glycan array binding signal (z-score),[12],0.24
same,glycan array binding signal (z-score),[13],0.501
same,glycan array binding signal (z-score),[14],-0.574
same,glycan array binding signal (z-score),[15],-0.608
same,glycan array binding signal (z-score),[16],-0.477
same,glycan array binding signal (z-score),[17],0.705
same,glycan array binding signal (z-score),[18],-0.287
same,glycan array binding signal (z-score),[19],-0.63
same,glycan array binding signal (z-score),[20],-0.566
same,glycan array binding signal (z-score),[21],-0.498
same,glycan array binding signal (z-score),[22],1.27
same,glycan array binding signal (z-score),[23],-0.417
same,glycan array binding signal (z-score),[24],-0.287
same,glycan array binding signal (z-score),[25],-0.491
same,glycan array binding signal (z-score),[26],-0.56
same,glycan array binding signal (z-score),[27],-0.271
same,glycan array binding signal (z-score),[28],-0.086
same,glycan array binding signal (z-score),[29],0.187
same,glycan array binding signal (z-score),[30],-0.202
same,glycan array binding signal (z-score),[31],-0.277
same,glycan array binding signal (z-score),[32],-0.415
same,glycan array binding signal (z-score),[33],0.228
same,glycan array binding signal (z-score),[34],1.26
same,glycan array binding signal (z-score),[35],-0.385
same,glycan array binding signal (z-score),[36],-0.379
same,glycan array binding signal (z-score),[37],-0.309
same,glycan array binding signal (z-score),[38],-0.379
same,glycan array binding signal (z-score),[39],-0.293
same,glycan array binding signal (z-score),[40],-0.301
same,glycan array binding signal (z-score),[41],-0.087
same,glycan array binding signal (z-score),[42],-0.373
same,glycan array binding signal (z-score),[43],-0.602
same,glycan array binding signal (z-score),[44],-0.301
same,glycan array binding signal (z-score),[45],0.403
same,glycan array binding signal (z-score),[46],1.24
